# Source: article PMC12040169 (PLOS Biology, 2025)
# This is one part of the list.
# Tested on: T1, C. trachomatis L2/434/Bu expressing GFP (CTL2-GFP)
# T1 construct: L2/434/Bu GFP intracellular growth in HeLa cells
# Parameters: species or system HeLa; C. trachomatis total inclusion area by high-content imaging, normalised to DMSO
# Conditions: total inclusion area; 28.5 h, 10 µM; inhibitor
# Method in brief: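 After bulk GFP and resorufin fluorescence reads, cells were fixed, stained with Hoechst and imaged by high-content microscopy. Inclusion area and number (GFP) stood in for chlamydial growth, nuclei count (Hoechst) for host cell viability. MICs were derived as for the bulk readout.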
row,SMILES,% of control remaining
1,CNC(=O)c1ccc(-c2ccc(N3CCOCC3)cc2)nc1NCC1CC1 [CBK106305],93.8945
2,CC(=O)c1csc(NC(=O)Cn2ccc3ccc(F)cc32)n1 [CBK282572],86.3958
3,O=C(c1ccccc1F)N1CCC(c2n[nH]c3ncccc23)CC1 [CBK284903],101.948
4,CCN1CCN(C(=O)c2ccccc2N(Cc2ccccc2)S(C)(=O)=O)CC1 [CBK267028],103.269
5,CC(C)Oc1cccc(C(=O)Nc2ccc(N3CCN(C)CC3)cc2)c1 [CBK266090],84.033
6,COc1ccc(S(=O)(=O)Nc2sccc2C#N)cc1 [CBK034732],99.2554
7,O=C(O)c1cc2nc3c(c(C(F)(F)F)n2n1)CCc1ccccc1-3 [CBK263025],94.66
8,NC(=O)CN1CCC(Oc2cncc(OCCN3CCOCC3)n2)C1 (stereo not shown) [CBK084488],90.0042
9,CSc1ncnc2c1CC=N2 [CBK007532],88.9347
10,CC1CCN(S(=O)(=O)c2ccc(NC(=O)COc3ccc4ccccc4c3)cc2)CC1 [CBK264969],109.05
11,COc1ccc(CNC(=O)N2CCN(c3ccccc3OC)CC2)cc1OC [CBK155609],102.167
12,Cc1ccc(CSCc2nc3ccccc3[nH]2)cc1 [CBK265238],84.8428
13,COCc1nc(NCCCn2c(C)cccc2=O)cc([C@H]2C[C@H](N)C2)n1 [CBK307337],61.5693
14,O=C(c1cnoc1-c1ccc(F)cc1)N1CCCC1 [CBK153707],97.9227
15,CC(C)(CO)CNc1cncc(-c2cccc(C(F)(F)F)c2)n1 [CBK065248],81.1346
16,CNC(=O)c1cccc(NC(=O)c2ccc(C)nc2N2CCOCC2)c1 [CBK106223],94.9693
17,CC(=O)N1CCC(C(=O)NC(=O)NC2CCCCC2)CC1 [CBK034847],98.4762
18,CC(Sc1ccc(Cl)cc1)C(=O)Nc1ccc(S(=O)(=O)Nc2ccc(Cl)cc2)cc1 (stereo not shown) [CBK264805],64.4314
19,Cc1ccc(S(=O)(=O)NCCc2nc3ccccc3n2C)s1 [CBK281398],106.169
20,S=C(NCCc1ccccc1)NCCN1CCOCC1 [CBK264929],105.797
21,Cc1ccccc1NC(=O)c1ccccc1Cl [CBK116485],11.2729

row,SMILES,% of control remaining
1,CC(=O)Nc1ccc(F)c(NC(=O)NCCC2CCCN2C)c1 (stereo not shown) [CBK304661],57.1347
2,Cn1c(Cc2ccc(Cl)cc2)nnc1SCc1nc2ccccc2c(=O)n1-c1cccc(C(F)(F)F)c1 [CBK268425],87.1833
3,CC(=O)NCCN1CC[C@H]2CN(C(=O)c3cc(C)on3)CC[C@H]2CC1=O [CBK288785],90.8659
4,NC(=O)c1cn[nH]c1C1CCCCN1Cc1cccc2c1CCOC2 (stereo not shown) [CBK304745],87.21
5,FC(F)(F)Oc1cccc(OCCOc2nccnc2N2CCNCC2)c1 [CBK014323G],93.8025
6,CC(=O)Nc1cccc(-c2cnc(N(C)S(C)(=O)=O)c(C(=O)NCc3ccc4c(c3)CCO4)c2)c1 [CBK076609],80.2754
7,Nc1nc(SCc2ccc(Cl)cc2)nc2sc3c(c12)CCN(Cc1ccccc1)C3 [CBK263724],56.7001
8,O=C(CSc1nc[nH]n1)Nc1nsc(-c2ccc(Cl)cc2)n1 [CBK267273],86.5115
9,O=C(c1cnccn1)N1CCN(CCc2ccccc2)CC1 [CBK200224],92.8363
10,N#Cc1ccc(NCc2ccccc2CN2CCCC2CO)cn1 (stereo not shown) [CBK304077],34.3887
11,CC(C)CC(=O)NCCn1nc(-c2cccs2)oc1=O [CBK282342],103.114
12,CCn1cc(C(=O)NC2(c3cccc(OC)c3)CCCC2)cn1 [CBK283750],76.3004
13,COc1ccccc1CC(C)NC(=O)c1ccnn1C(C)C (stereo not shown) [CBK282595],88.6822
14,Cc1cnc2c(C(=O)N3CC(C(=O)N4CCN(c5ccccc5)CC4)C3)cnn2c1 [CBK285641],103.267
15,COc1ccc(CSc2nnc(-c3ccco3)n2N)cc1 [CBK267548],99.8932
16,CC1(C)COC(=O)N1C1CCN(C(=O)c2cncc(Br)c2)CC1 [CBK038781],79.8757
17,Cn1c(SCC(=O)n2c3c(c4ccccc42)CCCC3)nnc1-c1ccco1 [CBK267370],123.241
18,CCc1ccc(OCC(O)Cn2nnc(-c3ccc(CN4CCC(C)CC4)cc3)n2)cc1 (stereo not shown) [CBK161437T],36.2335
19,Nc1ncnc2sc3c(c12)CCC3 [CBK097952],65.5822
20,CC(=O)c1cc(C#N)c(SCC(=O)O)nc1C [CBK270189],101.364
21,COc1ccc([C@@]23CC[C@@H](NC(=O)Nc4ccc(-c5csnn5)cc4)C[C@@H]2N(C)CC3)cc1OC [CBK051163T],94.3869

row,SMILES,% of control remaining
1,Cc1ccc2nc(NCC(=O)O)nc(-c3ccccc3)c2c1 [CBK287002],75.7163
2,O=c1c2sc(-c3ccc(F)cc3)cc2ncn1CC1(O)CCCNC1 (stereo not shown) [CBK306525],13.2954
3,Cc1ccnc(NS(=O)(=O)c2ccc(NC(=O)CSc3ccc(Cl)cc3)cc2)n1 [CBK265854],103.867
4,Cc1ccn(CCNC(=O)Cc2coc3cc(C)c(C)cc23)n1 [CBK282578],78.4044
5,Nc1cc2cccnc2nc1-c1cc(F)cc(F)c1 [CBK067604],95.8398
6,Cc1ccc(S(=O)(=O)N2CC[C@@H]3C[C@H](NC(=O)C4CC4C)[C@@H]32)cc1 (stereo partly shown) [CBK284968],87.4601
7,O=C(O)CCC1=C2c3ccccc3CCN2C(=O)CC1 [CBK286945],95.9115
8,Cc1nnc(SCc2cc(=O)nc(Nc3nc(C)c4ccccc4n3)[nH]2)s1 [CBK266549],112.552
9,CC1=CC(c2ccc(Cl)cc2)n2nc(NC(=O)CCC(=O)O)nc2N1 (stereo not shown) [CBK264331],114.471
10,COc1ccc(C2CCN(CC(=O)NC(C)(C)C)CC2)cc1 [CBK283558],101.344
11,O=C(c1n[nH]c2c1CCCC2)N1CCc2ncc(Cl)cc2C1 [CBK284975],113.447
12,CC(C)N1CCC[C@H]1c1nc(-c2ccc(N3CCN(C)CC3)nc2)no1 [CBK288881],123.126
13,CCn1nc(-c2ccc(C)o2)nc1CC1NC(=O)c2ccccc21 (stereo not shown) [CBK306834],80.6956
14,Cc1csc2ncc(C(=O)Nc3ccccc3F)c(=O)n12 [CBK287455],88.1471
15,COc1cccc(NC(=O)CSc2nnc(-c3ccccc3O)n2-c2ccccc2)c1 [CBK268343],86.8894
16,CCC(C)NC(=O)C1(Cc2ccc(-c3cc(F)ccc3OC)cc2)CCOCC1 (stereo not shown) [CBK285539],116.885
17,O=C(NCCN1CCOCC1)C1CCCN(c2nc3c(-c4ccccc4)csc3c(=O)[nH]2)C1 (stereo not shown) [CBK215509],99.1094
18,CN(Cc1ccsc1)C(=O)c1cccc(S(=O)(=O)NC(C)(C)C)c1 [CBK305425],46.7523
19,Cc1noc(C(C)C)c1C(=O)NC1CCCN(c2ccn(C)n2)C1=O (stereo not shown) [CBK306356],44.0018
20,Cc1cc(C)c2c(OCC(=O)NC(C)C)nn(C)c2n1 [CBK306393],78.7623
21,CN1CCN(CC2(CNC(=O)c3ccc(C(=O)O)cc3)CC2)CC1 [CBK307517],67.1963

row,SMILES,% of control remaining
1,O=C(O)COc1ccccc1/C=N/NC(=O)Cc1ccc(Br)c2ccccc12 [CBK263116],83.0488
2,CCc1nn(CC(=O)NC2CC2)c(=O)c2cc3ccsc3n12 [CBK284128],87.8128
3,CC(=O)N[C@@H](CC(C)C)C(=O)Nc1cc(C)nc2ccccc12 [CBK116265],103.987
4,CCOc1ncccc1NC(=O)Cc1cccc(OC)c1 [CBK256406],130.693
5,Cn1ncc2c1CCCC2NC(=O)NCc1ccc(C#N)cc1F (stereo not shown) [CBK305193],83.1865
6,CN(C)C(=O)C1CN(C(=O)C(C)(C)c2ccccc2F)C1 [CBK281970],103.715
7,COc1cccc(CNc2nccnc2-c2ccsc2)c1OC [CBK037543],62.4317
8,CC(CNc1cc(=O)n2ccccc2n1)CN1CCCC1 (stereo not shown) [CBK305270],70.2347
9,Cc1cc(C)cc(NC(=O)c2ccccc2NS(=O)(=O)c2ccc(F)c(F)c2F)c1 [CBK113886],84.4128
10,CSCCC(NC=C1C(=O)CC(C)(C)CC1=O)C(=O)O (stereo not shown) [CBK261311],94.4096
11,O=C(/C=C/c1cccc([N+](=O)[O-])c1)NC(=S)Nc1ccc(-c2nc3ncccc3o2)cc1 [CBK264391],104.977
12,Oc1nccc(Oc2ccnc(Cl)n2)n1 [CBK000010],97.7483
13,CCCc1n[nH]c(=S)n1CC(=O)NCc1ccc(N2CC(C)OC(C)C2)nc1 (stereo not shown) [CBK297741],97.4822
14,COc1ccc2[nH]cc(CCNC(=O)COc3ccc(O)cc3)c2c1 [CBK116227],101.099
15,O=C(O)CCSc1nc2ccccc2[nH]1 [CBK262056],96.9683
16,COc1ccc(-c2cnn(-c3ccccc3CN(C)C)n2)cc1 [CBK112762],80.6016
17,CCc1nc2ccccc2n1CC(=O)N(C)C(C)c1cccnc1 (stereo not shown) [CBK304017],84.1447
18,CC(=O)Nc1ccc(OCC(O)Cn2ncc3ccccc3c2=O)cc1 (stereo not shown) [CBK305567],34.3515
19,Cc1nn2c(-c3ccc(NC(=O)c4cccs4)cc3)nnc2c2ccccc12 [CBK267134],82.9342
